Source: paper PMC9911399, “Two distinct binding modes provide the RNA-binding protein RbFox with extraordinary sequence specificity”
Residue numbers refer to the chain shown, from its start. This is one part of the list.

T1: RBFOX1 RRM (Homo sapiens, UniProt Q9NWB1 109-208)
T1 sequence: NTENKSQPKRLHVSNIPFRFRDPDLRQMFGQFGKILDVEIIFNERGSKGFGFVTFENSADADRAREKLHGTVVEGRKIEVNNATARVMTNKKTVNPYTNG

B1: AAAAGCA (DNA:RNA)
RNA: GGGAGACCGGAAUUCAGAUUGUCCAAAAGCAUUAAAUCCCGUCGUAGCCACCA
DNA 1: CAATCTGAATTCCGGTCTCCC
DNA 2: TGGTGGCTACGACGGGATT
B2: UUAGGCU (DNA:RNA)
RNA: B1 RNA with A25U, A26U, A28G, A31U
DNA 1: CAATCTGAATTCCGGTCTCCC
DNA 2: TGGTGGCTACGACGGGATT
B3: UAAUGCU (DNA:RNA)
RNA: B1 RNA with A25U, A28U, A31U
DNA 1: CAATCTGAATTCCGGTCTCCC
DNA 2: TGGTGGCTACGACGGGATT
B4: CUUAACA (DNA:RNA)
RNA: B1 RNA with A25C, A26U, A27U, G29A
DNA 1: CAATCTGAATTCCGGTCTCCC
DNA 2: TGGTGGCTACGACGGGATT
B5: CCCAGCG (DNA:RNA)
RNA: B1 RNA with A25C, A26C, A27C, A31G
DNA 1: CAATCTGAATTCCGGTCTCCC
DNA 2: TGGTGGCTACGACGGGATT
B6: GACGUUG (DNA:RNA)
RNA: B1 RNA with A25G, A27C, A28G, G29U, C30U, A31G
DNA 1: CAATCTGAATTCCGGTCTCCC
DNA 2: TGGTGGCTACGACGGGATT
B7: GCGCGGG (DNA:RNA)
RNA: B1 RNA with A25G, A26C, A27G, A28C, C30G, A31G
DNA 1: CAATCTGAATTCCGGTCTCCC
DNA 2: TGGTGGCTACGACGGGATT
B8: AUUUCAA (DNA:RNA)
RNA: B1 RNA with A26U, A27U, A28U, G29C, C30A
DNA 1: CAATCTGAATTCCGGTCTCCC
DNA 2: TGGTGGCTACGACGGGATT
B9: UGGCAAA (DNA:RNA)
RNA: B1 RNA with A25U, A26G, A27G, A28C, G29A, C30A
DNA 1: CAATCTGAATTCCGGTCTCCC
DNA 2: TGGTGGCTACGACGGGATT
B10: CGGAUGU (DNA:RNA)
RNA: B1 RNA with A25C, A26G, A27G, G29U, C30G, A31U
DNA 1: CAATCTGAATTCCGGTCTCCC
DNA 2: TGGTGGCTACGACGGGATT
B11: CGAUUGU (DNA:RNA)
RNA: B1 RNA with A25C, A26G, A28U, G29U, C30G, A31U
DNA 1: CAATCTGAATTCCGGTCTCCC
DNA 2: TGGTGGCTACGACGGGATT
B12: AGCGCGC (DNA:RNA)
RNA: B1 RNA with A26G, A27C, A28G, G29C, C30G, A31C
DNA 1: CAATCTGAATTCCGGTCTCCC
DNA 2: TGGTGGCTACGACGGGATT
B13: CACUAAG (DNA:RNA)
RNA: B1 RNA with A25C, A27C, A28U, G29A, C30A, A31G
DNA 1: CAATCTGAATTCCGGTCTCCC
DNA 2: TGGTGGCTACGACGGGATT
B14: UUCAUAU (DNA:RNA)
RNA: B1 RNA with A25U, A26U, A27C, G29U, C30A, A31U
DNA 1: CAATCTGAATTCCGGTCTCCC
DNA 2: TGGTGGCTACGACGGGATT
B15: ACAAGGU (DNA:RNA)
RNA: B1 RNA with A26C, C30G, A31U
DNA 1: CAATCTGAATTCCGGTCTCCC
DNA 2: TGGTGGCTACGACGGGATT
B16: CUCCAUU (DNA:RNA)
RNA: GGGAGACCGGAAUUCAGAUUGUCCCUCCAUUUUAAAUCCCGUCGUAGCCACCA
DNA 1: CAATCTGAATTCCGGTCTCCC
DNA 2: TGGTGGCTACGACGGGATT
B17: CACAAGC (DNA:RNA)
RNA: B16 RNA with U26A, C28A, U30G, U31C
DNA 1: CAATCTGAATTCCGGTCTCCC
DNA 2: TGGTGGCTACGACGGGATT
B18: ACUUGGA (DNA:RNA)
RNA: B1 RNA with A26C, A27U, A28U, C30G
DNA 1: CAATCTGAATTCCGGTCTCCC
DNA 2: TGGTGGCTACGACGGGATT
B19: AACGAAU (DNA:RNA)
RNA: B16 RNA with C25A, U26A, C28G, U30A
DNA 1: CAATCTGAATTCCGGTCTCCC
DNA 2: TGGTGGCTACGACGGGATT
B20: GCAUCGU (DNA:RNA)
RNA: B1 RNA with A25G, A26C, A28U, G29C, C30G, A31U
DNA 1: CAATCTGAATTCCGGTCTCCC
DNA 2: TGGTGGCTACGACGGGATT
B21: GGGACGA (DNA:RNA)
RNA: B1 RNA with A25G, A26G, A27G, G29C, C30G
DNA 1: CAATCTGAATTCCGGTCTCCC
DNA 2: TGGTGGCTACGACGGGATT
B22: GCUCUGG (DNA:RNA)
RNA: B16 RNA with C25G, U26C, C27U, A29U, U30G, U31G
DNA 1: CAATCTGAATTCCGGTCTCCC
DNA 2: TGGTGGCTACGACGGGATT
B23: CAUACGC (DNA:RNA)
RNA: B1 RNA with A25C, A27U, G29C, C30G, A31C
DNA 1: CAATCTGAATTCCGGTCTCCC
DNA 2: TGGTGGCTACGACGGGATT
B24: GAGAUCU (DNA:RNA)
RNA: B1 RNA with A25G, A27G, G29U, A31U
DNA 1: CAATCTGAATTCCGGTCTCCC
DNA 2: TGGTGGCTACGACGGGATT
B25: AGCGCGG (DNA:RNA)
RNA: B1 RNA with A26G, A27C, A28G, G29C, C30G, A31G
DNA 1: CAATCTGAATTCCGGTCTCCC
DNA 2: TGGTGGCTACGACGGGATT
B26: ACUUCAG (DNA:RNA)
RNA: B1 RNA with A26C, A27U, A28U, G29C, C30A, A31G
DNA 1: CAATCTGAATTCCGGTCTCCC
DNA 2: TGGTGGCTACGACGGGATT
B27: AAUUAAG (DNA:RNA)
RNA: B1 RNA with A27U, A28U, G29A, C30A, A31G
DNA 1: CAATCTGAATTCCGGTCTCCC
DNA 2: TGGTGGCTACGACGGGATT
B28: AUCAUGC (DNA:RNA)
RNA: B1 RNA with A26U, A27C, G29U, C30G, A31C
DNA 1: CAATCTGAATTCCGGTCTCCC
DNA 2: TGGTGGCTACGACGGGATT
B29: CUUAUUC (DNA:RNA)
RNA: B16 RNA with C27U, C28A, A29U, U31C
DNA 1: CAATCTGAATTCCGGTCTCCC
DNA 2: TGGTGGCTACGACGGGATT
B30: UGCAAUG (DNA:RNA)
RNA: B16 RNA with C25U, U26G, C28A, U31G
DNA 1: CAATCTGAATTCCGGTCTCCC
DNA 2: TGGTGGCTACGACGGGATT
B31: CCGCGAC (DNA:RNA)
RNA: B16 RNA with U26C, C27G, A29G, U30A, U31C
DNA 1: CAATCTGAATTCCGGTCTCCC
DNA 2: TGGTGGCTACGACGGGATT

The binders below were run against T1, RBFOX1 RRM (assay: EMSA; HiTS-Eq, 1 nM pool, 10 min; buffer printed only for the single-RNA assays: 10 mM Tris pH 7.5, 150 mM NaCl, 3.4 mM EDTA, 0.001% NP-40, 30 C). Conditions: tags: His6 N-terminal (pET28a); label: 5' 32P.
Procedure, shortened: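 Purified RbFox RRM, wild type or mutant, was incubated for 10 min in 50 µL with 1 nM of a 5′-radiolabelled RNA pool carrying 7 randomized nucleotides, whose flanks were annealed to DNA oligonucleotides, over a series of increasing protein concentrations. Unbound RNA was resolved on 8% native PAGE, cut out, reverse-transcribed, barcoded by PCR and sequenced on an Illumina HiSeq 2500. Relative association constants were derived from changes in read counts for each RNA species versus the control reaction and normalised to the cognate motif.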
In the case of B1, the binding signal is reported as 0.00717 KA relative to UGCAUGU.
With B2 the binding signal was 0.0153 KA relative to UGCAUGU.
With B3 the binding signal was 0.0118 KA relative to UGCAUGU.
In the case of B4, the binding signal is reported as 0.00209 KA relative to UGCAUGU.
B5 was tested, and the binding signal was 0.0092 KA relative to UGCAUGU.
B6 was tested, and the binding signal was 0.0239 KA relative to UGCAUGU.
In the case of B7, the binding signal is reported as 0.0239 KA relative to UGCAUGU.
With B8 the binding signal was 0.00233 KA relative to UGCAUGU.
With B9 the binding signal was 0.0111 KA relative to UGCAUGU.
For B10, the binding signal was 0.0261 KA relative to UGCAUGU.
B11 was tested, and the binding signal was 0.0164 KA relative to UGCAUGU.
In the case of B12, the binding signal is reported as 0.0135 KA relative to UGCAUGU.
In the case of B13, the binding signal is reported as 0.00529 KA relative to UGCAUGU.
With B14 the binding signal was 0.00109 KA relative to UGCAUGU.
For B15, the binding signal was 0.00642 KA relative to UGCAUGU.
B16 was tested, and the binding signal was 0.00386 KA relative to UGCAUGU.
B17 was tested, and the binding signal was 0.00287 KA relative to UGCAUGU.
In the case of B18, the binding signal is reported as 0.00141 KA relative to UGCAUGU.
In the case of B19, the binding signal is reported as 0.00313 KA relative to UGCAUGU.
With B20 the binding signal was 0.0157 KA relative to UGCAUGU.
For B21, the binding signal was 0.0296 KA relative to UGCAUGU.
With B22 the binding signal was 0.0209 KA relative to UGCAUGU.
B23 was tested, and the binding signal was 0.000478 KA relative to UGCAUGU.
In the case of B24, the binding signal is reported as 0.0119 KA relative to UGCAUGU.
In the case of B25, the binding signal is reported as 0.0172 KA relative to UGCAUGU.
B26 was tested, and the binding signal was 0.00783 KA relative to UGCAUGU.
With B27 the binding signal was 0.00679 KA relative to UGCAUGU.
With B28 the binding signal was 0.00514 KA relative to UGCAUGU.
In the case of B29, the binding signal is reported as 0.00688 KA relative to UGCAUGU.
B30 was tested, and the binding signal was 0.025 KA relative to UGCAUGU.
In the case of B31, the binding signal is reported as 0.00431 KA relative to UGCAUGU.
